Data as given in patent US20240101686A1 (SIMCERE ZAIMING PHARMACEUTICAL, published 2024).

How the values were obtained:
[1] = target: T1, cynomolgus monkey EGFR on HEK293T-monkey EGFR cells (cynomolgus monkey, UniProt P55245 (rhesus entry)); experiment: FACS, HEK293T-monkey EGFR cells
[2] = target: T2, monkey EGFR protein (commercial, SB, catalog number 90285-C08H) (monkey); experiment: ELISA, coated monkey EGFR protein, antibody 0.001 nM
T2 construct: Bought protein used to coat ELISA plates

[3] = target: T2, monkey EGFR protein (commercial, SB, …); experiment: ELISA, coated monkey EGFR protein, antibody 100 nM
[4] = target: T2, monkey EGFR protein (commercial, SB, …); experiment: ELISA, coated monkey EGFR protein, antibody 0.1 nM
[5] = target: T3, human EGFR endogenously expressed on A431 cells (human, UniProt P00533)
T3 construct: whole, on cells

[6] = target: T2, monkey EGFR protein (commercial, SB, …); experiment: ELISA, coated monkey EGFR protein, antibody 0.01 nM
[7] = target: T2, monkey EGFR protein (commercial, SB, …); experiment: ELISA, coated monkey EGFR protein, antibody 1 nM
[8] = target: T2, monkey EGFR protein (commercial, SB, …); experiment: ELISA, coated monkey EGFR protein, antibody 10 nM
[9] = target: T2, monkey EGFR protein (commercial, SB, …); experiment: ELISA, coated monkey EGFR protein, antibody 0 nM (blank)
[10] = target: T1, cynomolgus monkey EGFR on …; experiment: FACS, HEK293T-monkey EGFR cells (specificity assay)
[11] = target: T2, monkey EGFR protein (commercial, SB, …); experiment: ELISA, coated monkey EGFR protein, antibody 0.0001 nM
[12] = target: T4, human EGFRvIII-His tag protein (extracellular domain Leu25-Ser378) (human, UniProt P00533 part only)
T4 construct: Made in HEK293E cells, purified on nickel column; also called human EGFRvIII protein; EGFRvIII protein; not shown: His tag

[13] = target: T4, human EGFRvIII-His tag protein …; remark: listed apart in the source
[14] = target: T4, human EGFRvIII-His tag protein …; remark: listed apart in the source
[15] = target: T5, murine EGFR protein (murine, UniProt Q01279 25-647)
T5 construct: Bought protein

[16] = target: T4, human EGFRvIII-His tag protein …; remark: listed apart in the source
[17] = target: T4, human EGFRvIII-His tag protein …; remark: listed apart in the source
[18] = target: T5, murine EGFR protein; remark: listed apart in the source
[19] = target: T5, murine EGFR protein; remark: listed apart in the source
[20] = target: T4, human EGFRvIII-His tag protein …; remark: listed apart in the source
[21] = target: T5, murine EGFR protein; remark: listed apart in the source
[22] = target: T5, murine EGFR protein; remark: listed apart in the source
[23] = target: T5, murine EGFR protein; remark: listed apart in the source
[24] = target: T4, human EGFRvIII-His tag protein …; remark: listed apart in the source
[25] = target: T4, human EGFRvIII-His tag protein …; remark: listed apart in the source
[26] = target: T5, murine EGFR protein; remark: listed apart in the source
[27] = target: T5, murine EGFR protein; remark: listed apart in the source

| Binder | EC50 [1] [nM] | Max MFI [1] | OD450 [2] | OD450 [3] | OD450 [4] | Max_MFI [5] | OD450 [6] | OD450 [7] | OD450 [8] | OD450 [9] | Max_MFI [10] | OD450 [11] | further results |
| --- | --- | --- | --- | --- | --- | --- | --- | --- | --- | --- | --- | --- | --- |
| S008-NB148-77 VHH-Fc antibody (Fc fusion, VHH fused to human IgG1 hinge and Fc) EVQVVESGGGLVQAGGSLRLSCVASGFDFSDSVMGWYRQAPGKQREAVAIISSVGQSNYRDSVQGRFTVSRSNTENTMYLQMDSLKPEDTAIYYCKKFGPGEYWGQGTQVTVSS[human IgG1 Fc with changes not shown] | 2.18 | 12700 | 0.11 | 2.22 | 1.75 | 8820 | 0.59 | 1.99 | 2.11 | 0.04 | 10100 | 0.04 |  |
| S008-NB149-22 VHH-Fc antibody (Fc fusion) QVQLVESGGGLVQAGGSLRLSCVASGRFPSIYRMAWFRQAPGKERDFVAAINWGGTATYYEDSVKGRFTISRDNTKNTVWLQMNSLKPEDTAVYYCAAGTGTTYTPQRGDAYGYWGQGTQVTVSS[human IgG1 Fc with changes not shown] |  |  |  |  |  |  |  |  |  |  |  |  | OD450 [12]: 1.47; OD450 [13]: 0.04; OD450 [14]: 0.08; OD450 [15]: 0.05; OD450 [16]: 0.04; OD450 [17]: 1.93; OD450 [18]: 0.05; OD450 [19]: 0.05; OD450 [20]: 2.3; OD450 [21]: 0.05; OD450 [22]: 0.05; OD450 [23]: 0.05; OD450 [24]: 2.19; OD450 [25]: 0.38; OD450 [26]: 0.05; OD450 [27]: 0.07 |
| S008-NB148-5 VHH-Fc antibody (Fc fusion, VHH fused to human IgG1 hinge and Fc) QLQLVESGGGLVQAGGSLRLSCAVSISTFTTNGWDWYRQAPGKQRELVALISNDGTTTYTDSVKGRFTISRDGAKNTVYLQMNNLKPEDTAVYYCNTIPPAGSWGQGTQVTVSS[human IgG1 Fc with changes not shown] | 27.6 | 16200 | 0.15 | 2.56 | 1.92 | 13900 | 0.7 | 2.32 | 2.51 | 0.06 | 9550 | 0.06 |  |
| S008-NB148-48 VHH-Fc antibody (Fc fusion, VHH fused to human IgG1 hinge and Fc) QLQLVESGGGLVQAGGSLKLSCVASGFTFSNYAMAWYRQAPGKQRELIASCSASCIWTNYGASVKGRFTMSLDNAKKTVYLQMDSLKPEDTAVYYCRNLDANYWGQGTQVTVSS[human IgG1 Fc with changes not shown] | 47.6 | 4750 | 0.08 | 2.69 | 1.64 | 13800 | 0.28 | 2.38 | 2.53 | 0.06 | 4460 | 0.06 |  |
| S008-NB149-15 VHH-Fc antibody (Fc fusion, VHH fused to human IgG1 hinge and Fc) QLQLVESGGGLVRPGGSLRLSCAASGSIFSRSGATWYRQAPGKQRELVALLTRDGHTDYPVVSVKGRFTISKDNAKNTVYLQMNSLQPEDTAVYYCNAIPPLGSWGRGTQVTVSS[human IgG1 Fc with changes not shown] | 3.89 | 19200 | 0.21 | 2.44 | 1.95 | 14900 | 0.89 | 2.13 | 2.31 | 0.08 | 10500 | 0.09 |  |
| S008-NB149-15 VHH-Fc antibody (Fc fusion) QLQLVESGGGLVRPGGSLRLSCAASGSIFSRSGATWYRQAPGKQRELVALLTRDGHTDYPVVSVKGRFTISKDNAKNTVYLQMNSLQPEDTAVYYCNAIPPLGSWGRGTQVTVSS[human IgG1 Fc with changes not shown] |  |  |  |  |  |  |  |  |  |  |  |  | OD450 [12]: 2.01; OD450 [13]: 0.1; OD450 [14]: 0.24; OD450 [15]: 0.05; OD450 [16]: 0.1; OD450 [17]: 2.12; OD450 [18]: 0.05; OD450 [19]: 0.05; OD450 [20]: 2.36; OD450 [21]: 0.05; OD450 [22]: 0.05; OD450 [23]: 0.05; OD450 [24]: 2.36; OD450 [25]: 0.99; OD450 [26]: 0.05; OD450 [27]: 0.08 |

Continued, in another order:

| EC50 [1] [nM] | Max MFI [1] | OD450 [2] | OD450 [3] | OD450 [4] | Max_MFI [5] | OD450 [6] | OD450 [7] | OD450 [8] | OD450 [9] | Max_MFI [10] | OD450 [11] | Binder | further results |
| --- | --- | --- | --- | --- | --- | --- | --- | --- | --- | --- | --- | --- | --- |
| 8.87 | 18900 | 0.09 | 2.21 | 1.6 | 15700 | 0.54 | 2.04 | 2.19 | 0.04 | 7540 | 0.04 | S008-NB149-12 VHH-Fc antibody (Fc fusion, VHH fused to human IgG1 hinge and Fc) QVQLVESGGGLVQPGGSLRLSCVVSESISVINAMTWYRQAPGKQRELVALISRGGSTNYADSVKGRFTISRDNAKNSVYLQMNSLKPEDTALYYCNVVPPLGSWGQGTQVTVSS[human IgG1 Fc with changes not shown] |  |
| 20.1 | 2900 | 0.08 | 2.67 | 1.42 | 12700 | 0.22 | 2.19 | 2.5 | 0.06 | 4170 | 0.06 | S008-NB148-9 VHH-Fc antibody (Fc fusion, VHH fused to human IgG1 hinge and Fc) EVQLVESGGGLVQAGGSLRLSCAASGSTLSSYAMGWYRQAPGKQRELVAAISSGGGSTNYRDSVKGRFTISRDNAKNTVYLQMNSLKPEDTAVYYCKSTDYGSLFDSWGQGTQVTVSS[human IgG1 Fc with changes not shown] |  |
| 15.9 | 17600 | 0.14 | 2.58 | 1.93 | 16000 | 0.64 | 2.24 | 2.43 | 0.07 | 10800 | 0.06 | S008-NB148-69 VHH-Fc antibody (Fc fusion, VHH fused to human IgG1 hinge and Fc) EVQVVESGGGLVQAGGSLRLSCAASTITISSAGVSWYRQAPGKQRELVAIITRGGSTNYADSVKGRFTISRDNAKNTHYLQMYNLKPEDTGIYYCNVVPPTYWGQGTQVTVSS[human IgG1 Fc with changes not shown] |  |
| 2.18 | 12900 | 0.13 | 2.54 | 1.81 | 15300 | 0.61 | 2.16 | 2.39 | 0.06 | 8910 | 0.06 | S008-NB148-8 VHH-Fc antibody (Fc fusion, VHH fused to human IgG1 hinge and Fc) EVQLVESGGGLVQAGGSLRLSCVVSGSTFSSYAMGWYRQAPGKQRELVAAISSGVSANVADSLKGRFAISRDNAKNAVYLQMNSLKPEDTAVYYCNTLPRSMPYWGKGTLVTVSS[human IgG1 Fc with changes not shown] |  |

Where two headings read alike, the source gives them in different places.
